The supplement of paper PMC8674133
Recombinant human monoclonal antibodies (heavy:light variable regions). ELISA EC50 on the named antigen, from 10 µg/ml down; IC50 / IC90 against spike pseudovirus on 293T-ACE2 cells, 48 h; lower = stronger. Calls: IC50 above 1,000 ng/ml = non-neutralizing; EC50 above 2,000 ng/ml = non-binder. The source prints 1000 for neutralization that was not reached; it is given as >1000 ng/ml. A few antibodies were first reported in earlier work of the same group.

B1: C1199 (protein)
chain 1: QVQLVQSGAEVKKSGASVKVSCKASGYTFTSYGISWVRQAPGQGLEWMGWISTYNGDTTSAQKVQGRVTMTTDTSTNTVYMEVRSLRSDDTAVYYCARVATAYSSGWSMYFFDFWGQGTLVTVSS
chain 2: EIVMTQSPASLSVSPGERATLSCRASQSVSTNLAWYQQKPGQAPRLLIYGASTRATGIPARFSGSGSGTEFTLTISSLQSEDFAVYYCQLYDDWPPVFTFGPGTKVDIK
B2: C1200 (protein)
chain 1: QVQLQESGPGLVKPSETLSLTCTVSGASISSYYCSWIRQAPGKGLEWIGNIYYSGSTNYNPSLKSRVTISLDTSQNQFSLKLSSVTAADTAIYYCARSFSGDEIDFWGQGTLVTVSS
chain 2: DIQMTQSPSTLSASVGDRITITCRASQSISRWLAWYQQKPGKAPKLLIYRASSLESGVPSRFSGSGSGTEFTLTISSLQPDDFATYYCQQYNSYRTFGQGTKVEIK
B3: C1201 (protein)
chain 1: QVQLQESGPGLVKPSQTLSLTCTVSGGSISRGVYYWNWIRQHPGKGLEWIGYIYSSGSTYYNPSLESRLTILLDTSKNQFSLRLNSVTAADTAVYYCASGRVPYYFDSWGQGALVTVSS
chain 2: QSVLTQPPSVSGAPGQRVTISCTGSASNIGAGFDVHWYQQLPGAAPRLLIYGNNNRPSGVPDRFSGSKSGTSASLAITGLQAEDEADYYCQSYDSKLSGPYVFGTGTKVAVL
B4: C1202 (protein)
chain 1: QVQLVQSGAEVRKPGSSVKVSCKASGGTFSSYAISWVRQAPGQGLEWMGGIIPIFRTANYAQRFQGRVTITADESTRTAYMELSSLRSEDTAVYYCARDLGEGILHDYGGPYYYYAMDVWGQGTTVTVSS
chain 2: EIVMTQSPATLSVSPGERATLSCRASQSVSSNLAWYQQKLGQAPRLLIYGASTRATGIPARFSGSGSETEFTLTISSLQSEDFAVYYCQQYNNWPAWTFGQGTKVEIK
B5: C1203 (protein)
chain 1: QVQLQESGPGLLKPSETLSLMCTVSGGSIGSYYWSWIRQPPGKGLEWIGYVYESGGTNYNPSLRSRVTISVDTSKNQFSLKLRSVTAADTAVYYCARERSAVTTWGSAAFHIWGHGTMVTVSS
chain 2: DIQMTQSPSSLSASVGDRVTITCQATQDISNYLNWYQQKPGKAPKLLIYDASNLETGVPSRFSGSGSGTDFTFTISSLQPEDIATYYCQQYDNLPITFGQGTRLEIK
B6: C1276 (protein)
chain 1: QVQLVQSGAEVEKPGASVKVSCKASGYSFSNYYIHWVRQAPGQGLEWMGIINPSAGSTTYAQKFQGRVTLTTDTSTNTVYMELSSLRSEDTAVYYCARDWGGIPAATYFDPWGQGTLVTVSS
chain 2: EIVLTQSPATLSFSPGERATLSCRASQSVGSYLAWYQQRPGQAPRLLIYDASNRATAIPARFSGSGSGTDFTLTISSLEPEDFAVYYCQQRSNGYTFGQGTKLEIK
B7: C1277 (protein)
chain 1: QLQLQESGPGLVKPSETLSLTCNVSGGSISSSSYYWGWIRQPPGKGLEWIGSFSYSDSPYYNPSLKSRVTISVDTSKNRFSLRLSSVTAADTAVYACARHRTSGTWAPFDAFDIWGQGTMVTVSS
chain 2: EIVMTQSPGTLSVSPGERATLSCRASQSVSSDLAWYQQKPGQTPRLLIYGASTRATGIPARFSGSGSGTEFTLTISSLQSEDFAVYYCQQYKYWGTFGQGTKLEIK
B8: C1308 (protein)
chain 1: EVQLVESGGGLVQPGGSLRLSCAASGFTFSSYWMSWVRQAPGKGLEWVAYIKQDGGEKYYVDSVKGRFTISRDNTKNSLYLQMNSLRVEDTAVYYCARGRTGPYLGIDYWGQGTLVTVSS
chain 2: NFMLTQPHSVSESPGKTVTISCTCSSGSIASNYVQWYQQRPGSSPTTVIYEDNQRPSGVPDRFSGSIDSSSNSASLTISGLKTEDEADYYCQSYDSSNWVFGGGTKLTVL
B9: C1309 (protein)
chain 1: VQLVESGGGVVQPGRSLRLSCAASGFTFSTYGMHWVRQAPGKGLEWVAVISYDGSNKYYADSVKGRFTISRDNSKNTLYLQMNSLRAEDTAVYYCAKDARGRYYYDSSGYFDYWGQGTLVTVSS
chain 2: IRMTQSPSSLSASVGDRVTITCQASQDISNYLNWYQQKPGKAPKLLIYDASNLETGVPSRFSGSGSGTDFTFTISSLQPEDIATYYCQQYDNLLTFGGGTKVEIK
B10: C1310 (protein)
chain 1: EVQLVESGGGLIQPGGSLRLSCVASGFTVRSTYMSWVRQAPGKGLEWVSTIYIANSAYYADSVKGRFTISRDNSKNTVFLQMNSLRAEDTAVYYCAREGSLEVAGPKLDAFDIWGQGTMVTVSS
chain 2: DIQLTQSPSSLSASVGDRVTITCRASQSISSYLNWYQQKPGKAPKLLIYAASSLQSGVPSRFSGSGSGTDFTLTISNLQPEDFATYYCQQSYSTRSITFGQGTRLEIK
B11: C1311 (protein)
chain 1: VQLVESGGGVVQPGRSLRLSCAASGFTFSYYGMHWVRQAPGKGLEWVAVISYDGNNKYYADSVKGRFTISRDNSKNTLYLQMNSLRAEDTAVYYCAKNSDYGDPSALSDDAVDIWGQGTMVTVSS
chain 2: QSVLTQPPSVSGAPGQRVTISCSGSSSNIGAGYDVHWYQQLPGTAPKLLIYGNSNRPSGVPDRFSGSKSGTSASLAITGLQAEDEADYYCQSYDSSLSVSRVFGTGTKVTVL
B12: C1312 (protein)
chain 1: VQLVESGGGVVQPGRSLRLSCAASGFTFSSYGMHWVRQAPGKGLEWVAVISYDGSNKYYADSVKGRFTISRDNSKNTLYLQMNSLRTEDTAVYYCAKAPRGYYDSSGYYRLQDYFDYWGQGTLVTVSS
chain 2: AIRMTQSPSSLSASVGDRVTITCRASQGISSALAWYQQKPGKAPKLLINDASSLESGVPSRFSGSGSGTDFTLTISSLQPEDFATYFCQQFNSYPLIFGGGTKVEIK
B13: C1313 (protein)
chain 1: EVQLVESGGGLAQPGGSLRLSCAASGFTFSSYDMHWVRQATGKRLEWVSAIGTDGDTYYTDSVKGRFTISRENAKNSLYLQMNSLRAGDTAVYYCARAVDSSSWYSNWYFDLWGRGTLVTVSS
chain 2: DIVMTQSPDSLAVSLGERATINCKSSQSVSYSSNNKNFLAWYQQKPGQPPKLLLYWASTRESGVPDRFSGSGSGTDFTLTINTLQAEDVAVYYCQQYYTTPVITFGQGTRLEIK
B14: C1314 (protein)
chain 1: VQLVESGGGVVQPGRSLRLSCAASGFTFSSYGMHWVRQAPGKGLEWVAVISYDGSNKYYADSVKGRFTISRDNSKNTLYLQMNSLRTEDTAVYYCARGWFGEEVGYYYFGLDVWGQGTTVTVSS
chain 2: QSVLTQPPSVSGAPGQRVTISCTGSSSNIGAHYDVHWYQQLPGTAPKLLIYGNSNRPSGVPDRFSGSKSGTSASLAITGLQAEDEADYYCQSYDSSLSGWVFGGGTKLTVL
B15: C1315 (protein)
chain 1: EVQLVQSGAEVKKPGESLKISCKGSGYSFISYWIGWVRQMPGKGLEWMGITYPGDSDTRYSPSFQGQVTISADKSISTAYLQWSSLKASDTAMYYCARTYGSGSYSDFDYWGQGTLVTVSS
chain 2: QSVLTQPPSASGTPGQRVTISCSGSSSNIGGNTVNWYQQLPGTAPKLLIYINNQRPSGVPDRFSGSKSGTSASLAISGLQSEDEADYYCAAWDDSLNGRGVFGGGTKLTVL
B16: C1316 (protein)
chain 1: QVQLVQSGAEVKKPGASVKVSCKVSGYTLTELSMHWVRQAPGKGLEWMGGFDPEDGETIYAQKFQGRVTMTEDTSTDTAYMELSSLRSEDTAVYYCATALITMVRGGEYHMDVWGQGTTVTVSS
chain 2: SYELTQPPSVSVSPGQTARITCSGDALPKQYAYWYQQKPGQAPVLVIYKDSERPSGIPERFSGSSSGTTVTLTISGVQAEDEADYYCQSADSSGLVFGGGTKLTVL

Target: SARS-CoV-2 Wuhan-Hu-1 spike pseudovirus
Experiment: pseudovirus neutralization IC50; higher = weaker neutralization
Method: (§1)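 Single-round luciferase reporter pseudovirus mixed with antibody dilutions and put on 293T-ACE2 cells for 48 h; signal relative to no-antibody wells, four-parameter fit.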

Binder	pseudovirus neutralization IC50
B1	391 ng/mL
B2	76.1 ng/mL
B3	126 ng/mL
B4	6.92 ng/mL
B5	33 ng/mL
B6	> 1000 ng/mL
B7	199 ng/mL
B8	139 ng/mL
B9	> 1000 ng/mL
B10	5.1 ng/mL
B11	216 ng/mL
B12	159 ng/mL
B13	> 1000 ng/mL
B14	259 ng/mL
B15	144 ng/mL
B16	> 1000 ng/mL

Target: SARS-CoV-2 Wuhan-Hu-1 spike pseudovirus
Experiment: pseudovirus neutralization IC90; higher = weaker neutralization
Method: as §1

Binder	pseudovirus neutralization IC90
B1	> 1000 ng/mL
B2	> 1000 ng/mL
B3	> 1000 ng/mL
B4	71.9 ng/mL
B5	105 ng/mL
B6	> 1000 ng/mL
B7	> 1000 ng/mL
B8	> 1000 ng/mL
B9	> 1000 ng/mL
B10	67.6 ng/mL
B11	> 1000 ng/mL
B12	> 1000 ng/mL
B13	> 1000 ng/mL
B14	> 1000 ng/mL
B15	> 1000 ng/mL
B16	> 1000 ng/mL

Target: SARS-CoV-2 Wuhan-Hu-1 spike receptor-binding domain
Experiment: ELISA binding EC50; higher = weaker binding; ELISA of recombinant human antibody on coated antigen, from 10 µg/ml in fourfold dilutions; four-parameter fit.

Binder	ELISA binding EC50
B1	3.06 ng/mL
B2	3.1 ng/mL
B3	2.41 ng/mL
B4	2.19 ng/mL
B5	2.52 ng/mL
B6	5.08 ng/mL
B7	2.43 ng/mL
B8	3.35 ng/mL
B9	2.49 ng/mL
B10	3.36 ng/mL
B11	2.63 ng/mL
B12	2.93 ng/mL
B13	3.06 ng/mL
B14	3.11 ng/mL
B15	4.08 ng/mL
B16	3.05 ng/mL
